# Source: ChEMBL document CHEMBL1201862, “PubChem BioAssay data set” (2004)
# System: NCI-H322M
# Assay: NCI tumour cell line growth inhibition, 48 h
row,Compound,GI50
1,Cc1cccc(-c2cc(O)c3c(C)cc(C)nc3n2)c1,inactive: 4.11 µM
2,CC(C)(C)c1ccc(OCC(=O)O)c(Cl)c1,inactive: > 100 µM
3,C[C@]12CC[C@@H]3c4ccc(O)cc4CC[C@H]3[C@@H]1C/C(=C\c1ccncc1)[C@@H]2O,inactive: 23.9 µM
4,Cc1cc(OCC(=O)O)c(Cl)cc1Cl,inactive: > 100 µM
5,COC(=O)C1(C)NCCc2c1[nH]c1ccccc21 (stereo not drawn),inactive: > 100 µM
6,COc1ccc(OC2OC(CO)C(OCc3ccccc3)C(OCc3ccccc3)C2OCc2ccccc2)cc1 (stereo not drawn),inactive: > 100 µM
7,CCC(=O)C1(N2CCOCC2)CCN(CCCC(=O)c2ccc(F)cc2)CC1,inactive: > 100 µM
8,Cc1ccccc1C1CC(c2ccccc2)=NO1 (stereo not drawn),inactive: > 100 µM
9,O=[N+]([O-])c1ccc(N2CCC(CCCC3CCN(c4ccc([N+](=O)[O-])cc4[N+](=O)[O-])CC3)CC2)c([N+](=O)[O-])c1,inactive: 15.6 µM
10,CC1=C(C(=O)Nc2ccccc2C)C(c2ccc(C3C(C(=O)Nc4ccccc4C)=C(C)NC(C)=C3C(=O)Nc3ccccc3C)cc2)C(C(=O)Nc2ccccc2C)=C(C)N1,inactive: 10.4 µM
11,CC(CCCC1SCC2NC(=O)NC21)C(=O)O (stereo not drawn),inactive: > 100 µM
12,CCOC(=O)NC(=O)c1cn(CCN2CCN(C(=O)CCCCCCCCCCNc3ncnc4c3ncn4C3OC(CO)C(O)C3O)CC2)c(=O)[nH]c1=O (stereo not drawn),inactive: > 100 µM
13,CCCCN(CCCC)C(=Nc1ccccc1)N(CCCC)CCCC,inactive: 12.9 µM
14,NC1=Nc2ccccc2Sc2nncn21,inactive: > 100 µM
15,O=C(c1ccccc1)[C@H]1Nc2ccc(Cl)cc2[C@H]2c3ccccc3O[C@H]21,inactive: 14.8 µM
16,CCOC(=O)C1C(c2ccc(OC)cc2)c2c(n[nH]c2O)CC1(O)OCC (stereo not drawn),inactive: > 100 µM
17,C[n+]1c2ccccc2c(CNc2ccc(S(=O)(=O)N=C(N)N)cc2)c2ccccc21,inactive: 18.6 µM
18,Cc1cc(NS(=O)(=O)c2ccc(Nc3c4ccccc4nc4c(C(=O)NCCO)cccc34)cc2)no1,inactive: 25.5 µM
19,CC12CP(=O)(c3ccccc3)CC1c1ccccc1C2c1ccccc1 (stereo not drawn),inactive: 74.8 µM
20,CCCCCNC(=O)OC1CCn2c1nc1c2C(=O)C(C)=C(N2CC2)C1=O (stereo not drawn),inactive: 1.6 µM
21,CC(C)(Br)C(=O)C(Br)Br,inactive: 17.2 µM
22,CC(C)(C)OC(=O)CCCCCNC(=O)CCCCCNC(=O)CCC(CN(CC(=O)OCc1ccccc1)CC(=O)OCc1ccccc1)N(CC(=O)OCc1ccccc1)CC(=O)OCc1ccccc1 (stereo not drawn),inactive: > 100 µM
23,N#CC(C#N)=c1ccc(=C2N3CCCC3CN2C23CC4CC(CC(C4)C2)C3)cc1 (stereo not drawn),inactive: > 100 µM
24,CCOc1ccc(NC(=O)CC2SC(Nc3ccc(Cl)cc3)=NC2=O)cc1 (stereo not drawn),inactive: > 100 µM

row,Compound,GI50
1,CCC/C(=N\NC(=S)N1CC2CCC(CC2)C1)c1ccccn1,active: 0.288 µM
2,C=C(CCCCC)CN1CCCC1[C@@](C)(O)CC(=O)OCC (stereo partly drawn),inactive: > 100 µM
3,CC(C)N(C(C)C)S(=O)(=O)CC12CCC(C/C1=N\O)C2 (stereo not drawn),inactive: > 100 µM
4,c1ccc(CN(Cn2cccn2)Cn2cccn2)nc1,inactive: > 100 µM
5,COC(=O)[C@@H]1CN(C(C)=O)C(=O)N1C(=O)OCc1ccccc1,inactive: > 100 µM
6,CC(C)CCC/C(CBr)=C(\Cl)CCl,inactive: 14.3 µM
7,C[P+]1(Cc2ccccc2)CCCC1,inactive: > 100 µM
8,NS(=O)(=O)c1nnc(NC(=S)NC(=O)Nc2ccc(Cl)c(Cl)c2)s1,inactive: 21.9 µM
9,O=C(NCC1Nc2ccncc2S(=O)(=O)N1)c1ccc(Br)cc1 (stereo not drawn),inactive: > 100 µM
10,CCOc1ccccc1/N=N/C1C(=O)N(C(=O)CC(=O)Nc2ccccc2C)N=C1C (stereo not drawn),inactive: 75.3 µM
11,c1ccc(CCCCNCc2cc(CNCCCCc3ccccc3)cc(CNCCCCc3ccccc3)c2)cc1,inactive: 1.34 µM
12,[O-][S+](Nc1ccccc1)c1cccc(Cl)c1 (stereo not drawn),inactive: 64 µM
13,CSc1ncc2c(n1)-c1ccccc1OC2,inactive: 48.2 µM
14,O=C(O)CCC1CCc2cccc(OCC(=O)O)c2C1=O (stereo not drawn),inactive: > 100 µM
15,CCC(/C=C/c1ccccc1)=N\NC(=S)N/N=C(/C=C/c1ccccc1)CC,inactive: > 100 µM
16,O=C(N/N=C\c1ccc(Cl)cc1)Nc1ccc2ccccc2c1,inactive: > 100 µM
17,NC1CC(=O)c2cc(Br)sc21 (stereo not drawn),inactive: > 100 µM
18,CCOP(=O)(OCC)/C(C#N)=C/c1ccc[nH]1,inactive: 74.1 µM
19,O=C1Nc2ccccc2S/C1=C\c1ccccc1C(F)(F)F,inactive: > 100 µM
20,CCOP(=O)(OCC)/C(C#N)=C/c1ccccn1,inactive: > 100 µM
21,CC(=O)C1=CSC2[C@H](NC(=O)Cc3ccccc3)C(=O)N2C1C(=O)OC(c1ccccc1)c1ccccc1 (stereo partly drawn),inactive: > 100 µM
22,FC(F)(F)c1ccc2c(c1)nc(Cc1ccccc1)n2C[C@@H]1CCCN2CCCCC12 (stereo partly drawn),inactive: 15.1 µM
23,C=C1C(=O)OC2CC1C(OC(=O)/C=C/c1ccccc1)C/C(C)=C/CC/C(C)=C/CCC2(C)O (stereo not drawn),inactive: 3.98 µM
24,O=C1CNc2cc(N3CCOCC3)ccc2N1,inactive: > 100 µM

row,Compound,GI50
1,O=c1[nH]nc(-c2ccccc2)n1Nc1ccccc1,inactive: > 100 µM
2,CCOc1ccc(/N=C/c2cccc3cccnc23)cc1,inactive: > 100 µM
3,COC(=O)c1ccccc1C1=C([N+](=O)[O-])C(c2cccc(Br)c2)C(C#N)=C(N)O1 (stereo not drawn),inactive: > 100 µM
4,NC1N=Nc2ccccc21 (stereo not drawn),inactive: > 100 µM
5,N#CCCN(CCC#N)c1ccc(C(/N=N/c2ccccc2)=N\c2ccccc2)cc1,inactive: > 100 µM
6,COCC1OC(Sc2ccccc2)C(O)C(OC)C1OC (stereo not drawn),inactive: > 100 µM
7,COC(=O)C1(C(=O)OC)N=C(C)OC1c1ccoc1 (stereo not drawn),inactive: > 100 µM
8,OCc1ccc2c(c1)CC1(C2)Cc2cc3c(cc2C1O)CCC3 (stereo not drawn),inactive: 9.33 µM
9,Cc1cccc(N2C(=O)/C(=C/c3ccc(N(CCC#N)CCC#N)cc3C)N=C2c2cc([N+](=O)[O-])ccc2Cl)c1,inactive: > 100 µM
10,CC1CC(C2=CC=CCS2)=Nc2ccccc2S1 (stereo not drawn),inactive: > 100 µM
11,O=C(O)c1oc2ccc([N+](=O)[O-])c3c2c1CCC3,inactive: > 100 µM
12,N#Cc1nc(C(=O)c2ccccc2)oc1N,inactive: > 100 µM
13,Cc1cc(-c2ccc(C(=O)C(c3ccccc3)(c3ccccc3)c3ccccc3)[nH]2)on1,inactive: 15.9 µM
14,C=C1C(=O)OC2C1C(OC(=O)/C(C)=C\C)CC1(CO1)C1C(O)C=C(C)C21O (stereo not drawn),inactive: 24.7 µM
15,O=C(O)CN(CC(=O)O)Cc1ccn(-c2cccc(-n3ccc(CN(CC(=O)O)CC(=O)O)n3)n2)n1,inactive: > 100 µM
16,CC[P+](C#Cc1ccccc1)(c1ccccc1)c1ccccc1,inactive: 3.48 µM
17,Cc1cc(N(CCC#N)CCC#N)ccc1C(/N=N/c1ccc([N+](=O)[O-])cc1)=N\NC(=O)c1ccccc1,inactive: 44.7 µM
18,C1CCN2CC34CC(CC5CCCN(C6CCCC3N6)C54)C2C1 (stereo not drawn),inactive: > 100 µM
19,COC(=O)C(=O)C(C(=O)C(=O)Nc1cccc(OC)c1)c1nc2ccc(Cl)cc2nc1O (stereo not drawn),inactive: > 100 µM
20,COC(=O)CCSC1=CC(=O)c2nc3ccccc3c3ccnc1c23,inactive: > 38.4 µM
21,CCCC12Cc3c(OC)ccc(OC)c3CC(Cc3c(OC)ccc(OC)c31)C2=O (stereo not drawn),inactive: > 100 µM
22,CN(CCCNC(=O)c1n[nH]c2c1ccc1ccccc12)CCCNC(=O)c1n[nH]c2c1ccc1ccccc12,inactive: 19.6 µM
23,CC(C)(C)OC(=O)NC(Cc1ccc(OCc2ccccc2)cn1)C(=O)O (stereo not drawn),inactive: > 100 µM
24,[N-]=[N+]=NC1=C(C(=O)c2ccccc2)C(=O)c2cccc3cccc1c23,inactive: 71.8 µM

row,Compound,GI50
1,C#CCNC(=O)NC(CCCCNC(=O)OCc1ccccc1)C(=O)OCc1ccccc1 (stereo not drawn),inactive: > 100 µM
2,CCOC(=O)C(Cc1ccc2c(c1)CCC2)(Cc1ccc2c(c1)CCC2)C(=O)OCC,inactive: > 100 µM
3,COc1cc2oc3c(c(=O)c2c(O)c1/C=C/C(C)C)CCC(C)(C)Oc1cc(O)ccc1-3,inactive: 23.7 µM
4,CCCCCC(/C=C/C1CCC(=O)C1)OCOCCOC (stereo not drawn),inactive: > 100 µM
5,N=C(/C=C/c1ccc(-c2cn3cc(/C=C/C(=N)N4CCOCC4)ccc3n2)cc1)N1CCOCC1,inactive: > 100 µM
6,C[N+](C)(C)CC1CCC/C1=N/O (stereo not drawn),inactive: 1.85 µM
7,CC1(C)CC(=O)C2=C(C1)C(c1ccccc1Cl)C1C(=O)CC(C)(C)CC1(O)O2 (stereo not drawn),inactive: > 100 µM
8,Cn1c2ccccc2c2nc3ccccc3c(Cl)c21,inactive: > 100 µM
9,c1ccc(OCCSCCCCCCCCCCSCCOc2ccccc2)cc1,inactive: 39.4 µM
10,C(=C\c1ccccc1)/C=N/c1nc2cc3sc(/N=C/C=C/c4ccccc4)nc3cc2s1,inactive: > 72.8 µM
11,CC1(C)C(=O)C(C)(C)C12SSC1(S2)C(C)(C)C(=O)C1(C)C,inactive: > 100 µM
12,COc1cc(/C=C/C(=O)N[C@@H]2C(=O)N3[C@@H]2SC(C)(C)[C@@H]3C(=O)O)cc(OC)c1OC,inactive: > 100 µM
13,CC(C)CC12CC3CCC(CNC1=O)C32C (stereo not drawn),inactive: > 100 µM
14,COC(=O)[C@@H]1[C@H](O)[C@H](C)[C@H](O)[C@H](C)/C=C\C=C(\C)C(=O)Nc2c(C)c(OC(C)=O)c3c(c2O)C(=O)C(C)=C2OCOC(=C23)/C(C)=C/[C@@H](O)[C@H](O)[C@@H](C)[C@H]1OC(C)=O,inactive: > 100 µM
15,Oc1cccc(-c2cc(O)c3cc4c(cc3n2)OCO4)c1,inactive: 3.32 µM
16,COC(=O)C(COC(=O)/C=C/c1ccc(OC(C)=O)c(OC(C)=O)c1)NC(=O)/C=C/c1ccc(OC(C)=O)c(OC(C)=O)c1 (stereo not drawn),inactive: 24.8 µM
17,Cc1ccc2c(O)cc(-c3sc4ccccc4c3C)nc2n1,inactive: 31.2 µM
18,C=C(C)C1CCC2(C)C1CCC1(C)C2CCC2C3(C)C4OC(OC4=O)C(C)(C)C3CCC21C (stereo not drawn),inactive: > 100 µM
19,Nc1ccccc1S(=O)(=O)N(CC(=O)O)c1ccccc1,inactive: > 100 µM
20,Oc1ccc(-c2nc3cc(C(F)(F)F)ccc3s2)cc1,inactive: 15.3 µM
21,C=CC/C=C/C/C=C/CCCCCCCc1cccc(O)c1C(=O)O,inactive: > 100 µM

#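 Compound exposure: 48 hours, 5 concentrations, 96-well plates. GI50 marks 50% less growth.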 Activity calls are given as the source filed them. Cut-off read from the data, not from the text of the source: active = GI50 up to about 1.1 µM and inactive = higher.
